Measurements reported in the supplement of paper PMC11417369.
Some of the results follow.

Tested on: PF3D7_0420300 AP2 domain 1 (GST-tagged)
Experiment: gcPBM binding intensity (ln(normalized median fluorescence intensity)); higher = stronger DNA binding
Procedure, shortened: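 GST-tagged P. falciparum DNA-binding domains produced in E. coli were incubated for 1 h on an Agilent 4 × 180k array of primer-extended double-stranded 36-bp intergenic genomic probes with negative controls. Binding intensity is the highest Masliner-normalised natural-log median intensity across replicate spots of either probe orientation, with bound protein detected by Alexa488 anti-GST antibody at 488 nm.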

Sequence	gcPBM binding intensity (ln)
TTGTTCATATTTTTTATTGTGTTAATATTTATAAAA [GTGCAC_negctrl_site423]	9.38
TTAATGTAGAGAAAATGTACATTTTATTAAAACAAT [XGTACX_site6376]	9.19
ATATTTTGATAATATTGTACAAAAACATTAAAATGT [XGTACX_site8361]	9.07
AACATTATGTTTATTTGTACATATAAATATATGTAA [XGTACX_site7389]	8.98
TCTTTTATGATATTTACACACAAACGTGAGATAGCT [CACACA_site2312]	9.46
CTCTACGAATTCATAGTGCAAAGAGCTAATTTTTTC [GTGCAC_site9710]	8.94
GATCATTCAGTTTTATCACACACAATCAAACATATA [CACACA_site8882]	9.64
ATGCGTTAATCTATATATATTATGTATAGATTTTCA [CACACA_negctrl_site1650]	9.2
AACATATTTATGATGTGTACCTACATAATAGAATTT [XGTACX_site141]	9.26
TTTTTTAATATATTATTATAAATATTTTTTATGTGT [GTGCAC_negctrl_site712]	9.26
CATAATGTAAATAAGTGTACACATATATAATACATA [XGTACX_site3108]	9.34
ATCGGTAATATTAACACACACATTTATATATATTTA [CACACA_site1084]	9.74
TTTTGTAGATATTGAAGTACAAAAAAAATGTAAAAG [XGTACX_site5905]	9.25
TATATATCGCCCTTCACACACACACGGATATAAATA [CACACA_site7221]	10.1
ATAATAAATATATAATGTACATATTATGTTCTTTAT [XGTACX_site8655]	9.15
CGCTCTTATAAATGTTGTACATAAAACTGTTCATTA [XGTACX_site3409]	9.22
ATTTTGATGATGTATGCACACATTGAAAATGAGAAA [CACACA_site2916]	9.03
ACAACATATGTTATCACACACATATAAATATAAATA [CACACA_site7038]	9.54
ATATATATATATATATGTACATATTTGATTTTTCTT [XGTACX_site8171]	8.96
TTTTTTTTTTTTTTTTGTACATATAAAAATACGTAA [XGTACX_site6003]	8.6
CACACGCACAGACACACACACACACGGATATAAATA [CACACA_site6301]	10.2
TCACTACATTTTGGACGTACACAACTTGATATATTG [XGTACX_site4775]	9.38
AAATCTTAACTCTATGCACACATAAAAGTATATAAA [CACACA_site8709]	9.18

Sequence	gcPBM binding intensity (ln)
ATGATATACTTGAGTGTGCACAAACTATTACTTACA	9.42
GATAATAATAAACAACCACACACAAAAAAACAAAAA [CACACA_site9074]	9.88
TGCTATAATTTATATACACACAAATATATACACATA [CACACA_site9356]	9.45
CAATGTTGTACATACACACACACAAAAAAAAAATAA [CACACA_site2407]	9.98
TTCAAATTTCCACATACACACCTTGTAGATCTATAT [CACACA_site6270]	9.46
ATAAAAAAACACACTCGTACACACATATTTTCTTTC [XGTACX_site6565]	9.84
ATGAATAATTAATGATGTACTTAAAAAAAAAAATAT [XGTACX_site6346]	9.26
AAAAAAAAAAAAAAAAAAAAAAAAAAAAAAACATAT [GTGCAC_negctrl_site580]	9.46
GTTAATATCTTGAACAGTACTCTAAATATCTACATA [XGTACX_site5358]	9.21
ATATATTATATTGAATGTACATATATATATTATATA [XGTACX_site8445]	9.07
TAGCCCATATGGAATACACACTGAAAATAAAAAAAG [CACACA_site5799]	9.41
TTACAATAAATTATAGTGCAATATTTTATTTAATAT	9.01
ACTACATAATATTAACGTACATATTATAATACTTGC [XGTACX_site954]	9.33
ATATAACACATTAGTTGTACTATTTTTAATTGGTGA [XGTACX_site961]	9.19
TACATAATAACATGTACACACATTCTTCTATAAATG [CACACA_site4061]	9.42
CATTAAAAAGAAAGTTCACACACATATATATGACGG [CACACA_site8836]	9.74
ACATAATAAAAATGACGTACAATTTTTTTTTTTCAT [XGTACX_site8340]	9.14
TTTATATTATTAGAAACACACATTAGATTAAAATTA [CACACA_site3286]	9.15
TATTTAATTACATGAACACACATTATATATTTTTAA [CACACA_site5615]	9.33
TATATATATATGTGCACACCAATTGTATGTAATATA [CACACA_site3889]	9.47
TATATATATATATATACACACAAAAAAATAAATTCT [CACACA_site98]	9.57
TACTTTTCATCTTCTTAACACACAAAAAAAAAAAAA [CACACA_site9290]	8.97
ATTTATTTTAATAATTGTACATGTTATTTTATATAT [XGTACX_site2667]	9.31

Sequence	gcPBM binding intensity (ln)
ATCATTTTTAAAGGAACACACAAAAAAAGTTATAAT [CACACA_site6761]	9.52
ATATATTATTATAACTGTACTTTTTTTGTGGTTAAT [XGTACX_site8266]	9.44
TATGCGTATATATAAATACACACCAAATGTTAATAT [CACACA_site1713]	9.35
CCATTTACATTGTGAAGTACTAAAAAAAAATGTAGA [XGTACX_site7882]	9.22
ACAAGGAATATAAAAAGTACATAAAATACATAAAAA [XGTACX_site1217]	9.56
TATGGATGTATTCATACATGCACACGTACATATTTA [TGCATGCA_site991]	9.32
ATAATTTGATGGTTAACACACATATATATTATATAT [CACACA_site2449]	9.49
ATATAAATATAAATATATATGTATAAATATAAATAT [CACACA_negctrl_site247]	9.2
AAAATATATATAAATGCATGCATAATGAAATATATA [TGCATGCA_site39]	9.45
TTTTAAAAAACAAACACACACGTAGAAAAAAAAAAA [CACACA_site4608]	9.72
CTGTATAAAACCAATGCATGTAAATATATTAATATA [TGCATGCA_site511]	9.27
GAAATTTTATTTCGGCGGACAAATGTATACTTTCTT [XGTACX_site4238]	9.14
GAGAAGACATTACACAGTACCCAGTAACTCTACGGA [XGTACX_site2000]	9.27
GATTATTATGTCCATGCATGTTAATATATATTAATT [TGCATGCA_site837]	9.39
AAATTGGGGCTTGTTACACACTTAGTGCGAGTTCTA [CACACA_site582]	9.45
TTATGATGGTCTTTATAAGGGCACATTAAATTCGGC [TGCATGCA_negctrl_site166]	9.13
AAACTATTCACTATAATACATTAGAAGTGAATAAAA [TGCATGCA_negctrl_site498]	9.1
ATATATTTAACAAGATGTACAATTTTATAAAAAATA [XGTACX_site2351]	8.98
CCATTATATCTAAGTACACACATTAATTTTTTTTTT [CACACA_site6115]	9.41
TATATATAAATATTCAGTACATAGTGCTATTAAGTG [XGTACX_site1979]	9.25
AGAAATTAATCGAGGTGTACGTACATCCAAATATAT [XGTACX_site7650]	9.34
TGAAAAGGAAATTGTTGTACATATGTTTCTTCCTAA [XGTACX_site3932]	9.02
AATAGCAATTTGGGGTGTACACACACCTTATTTAAA [XGTACX_site2234]	9.45

Sequence	gcPBM binding intensity (ln)
TTTTTATAAAAAAATAGTACTCGTCTAATCTTATGT [XGTACX_site8532]	9.01
ACAAAAAAGTAAAAAGTGCATGTAAAATATAAGTAT [GTGCAC_site9438]	9.73
AAATTGTGTTCATCAGCACACACAACATCATGTAAT [CACACA_site8556]	9.63
TTAATATATTATATTTGTACATATATATATATACAA [XGTACX_site4798]	9.02
AATAAATCTTTTTGTTGTACTAAAAATATTATTAGC [XGTACX_site3335]	8.92
CGAAAGAAAAAAAGCACACACAGTTTTGAGCAATGA [CACACA_site2109]	9.62
ACACATATGACAAATAGTACATAAATATATAAATAT [XGTACX_site7141]	9.46
AATATTCACATTTGTTGTACATTCCTAGTTATATAA [XGTACX_site491]	9.48
AAAAAATTTCAAATAACACACACTAATATATATATG [CACACA_site1426]	9.76
TAAATATATAATTGTAGTACTGTTTTATGTTCATAA [XGTACX_site1020]	9.23
TAAACAGATATATTTTGTACATATTGTATATTTTGT [XGTACX_site713]	9.27
AAGGAAAATTTTTGGTGTACACAAAAAAATCCAAAA [XGTACX_site3596]	9.17
TAAAAAATGTTATATACACACAGTATAAAAAAAAAT [CACACA_site7808]	9.64
AATTAAATTATAAGCACACACATATATATATATATA [CACACA_site3351]	9.41
CCACGTATAATATGTACACACACATAAATACAAAAA [CACACA_site4660]	9.85
CTTATTTCCTTTTGTAGTACCTTATAATATATATAA [XGTACX_site8873]	9.41
GCATTTCTACTAAAAATACACACGATGATACAACGA [CACACA_site1756]	9.28
TTCTATTTGTAAAATTGTACAAAATAAATAACAAAA [XGTACX_site1007]	8.99
TAATAATAGTACTCACATCAAAGTATTATTAAAAAT [TGCATGCA_negctrl_site496]	9.16
GGGAAGTAGTAGTAATGTACTTATTTATTATGTGAC [XGTACX_site3985]	9.22
